Measured values reported in PubChem BioAssay AID504333 (National Center for Advancing Translational Sciences (NCATS), 2011).
Screen size: about 360,000 compounds; about 16,000 (4.4%) were called active. This list was built around the results that the source calls inconclusive (neither active nor inactive); the mix of calls is not that of the screen. Calls come from the whole dose curve; as a rule, active = well fitted inhibition curve with a large enough effect; inconclusive = small, poorly fitted or top-dose-only effect; inactive = no such curve, though single readings can be large or run the other way. Potencies of inconclusive entries are doubtful fits and often do not repeat.

target: Bromodomain adjacent to zinc finger domain protein 2B (Homo sapiens) (UniProt Q9UIF8); test: qHTS Assay for Inhibitors of BAZ2B; conditions: AlphaScreen BAZ2B-H3K14Ac peptide displacement; activity change, negative = inhibition: at 114 µM (top of the series) unless noted; note: nearly all actives have a fitted effect of over 60% in size
Outline: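 BAZ2B (50 nM) with biotin-H3(5-23)K14Ac peptide (50 nM) in PBS pH 7.4, 0.01% Tween-20, preformed 30 min, then compound 30 min at room temperature; top concentration 110uM. AlphaScreen streptavidin donor/nickel chelate acceptor beads (10 ug/mL final), 20 min dark, signal read.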
% is set by controls: 0 for no effect and ±100 for the full control effect; potency is the fitted concentration of half-maximal effect; tags give direction and shape of the fitted curve.

Sequence of UniProt Q9UIF8 (Q9UIF8 whole entry, looked up, the tested form may be a part): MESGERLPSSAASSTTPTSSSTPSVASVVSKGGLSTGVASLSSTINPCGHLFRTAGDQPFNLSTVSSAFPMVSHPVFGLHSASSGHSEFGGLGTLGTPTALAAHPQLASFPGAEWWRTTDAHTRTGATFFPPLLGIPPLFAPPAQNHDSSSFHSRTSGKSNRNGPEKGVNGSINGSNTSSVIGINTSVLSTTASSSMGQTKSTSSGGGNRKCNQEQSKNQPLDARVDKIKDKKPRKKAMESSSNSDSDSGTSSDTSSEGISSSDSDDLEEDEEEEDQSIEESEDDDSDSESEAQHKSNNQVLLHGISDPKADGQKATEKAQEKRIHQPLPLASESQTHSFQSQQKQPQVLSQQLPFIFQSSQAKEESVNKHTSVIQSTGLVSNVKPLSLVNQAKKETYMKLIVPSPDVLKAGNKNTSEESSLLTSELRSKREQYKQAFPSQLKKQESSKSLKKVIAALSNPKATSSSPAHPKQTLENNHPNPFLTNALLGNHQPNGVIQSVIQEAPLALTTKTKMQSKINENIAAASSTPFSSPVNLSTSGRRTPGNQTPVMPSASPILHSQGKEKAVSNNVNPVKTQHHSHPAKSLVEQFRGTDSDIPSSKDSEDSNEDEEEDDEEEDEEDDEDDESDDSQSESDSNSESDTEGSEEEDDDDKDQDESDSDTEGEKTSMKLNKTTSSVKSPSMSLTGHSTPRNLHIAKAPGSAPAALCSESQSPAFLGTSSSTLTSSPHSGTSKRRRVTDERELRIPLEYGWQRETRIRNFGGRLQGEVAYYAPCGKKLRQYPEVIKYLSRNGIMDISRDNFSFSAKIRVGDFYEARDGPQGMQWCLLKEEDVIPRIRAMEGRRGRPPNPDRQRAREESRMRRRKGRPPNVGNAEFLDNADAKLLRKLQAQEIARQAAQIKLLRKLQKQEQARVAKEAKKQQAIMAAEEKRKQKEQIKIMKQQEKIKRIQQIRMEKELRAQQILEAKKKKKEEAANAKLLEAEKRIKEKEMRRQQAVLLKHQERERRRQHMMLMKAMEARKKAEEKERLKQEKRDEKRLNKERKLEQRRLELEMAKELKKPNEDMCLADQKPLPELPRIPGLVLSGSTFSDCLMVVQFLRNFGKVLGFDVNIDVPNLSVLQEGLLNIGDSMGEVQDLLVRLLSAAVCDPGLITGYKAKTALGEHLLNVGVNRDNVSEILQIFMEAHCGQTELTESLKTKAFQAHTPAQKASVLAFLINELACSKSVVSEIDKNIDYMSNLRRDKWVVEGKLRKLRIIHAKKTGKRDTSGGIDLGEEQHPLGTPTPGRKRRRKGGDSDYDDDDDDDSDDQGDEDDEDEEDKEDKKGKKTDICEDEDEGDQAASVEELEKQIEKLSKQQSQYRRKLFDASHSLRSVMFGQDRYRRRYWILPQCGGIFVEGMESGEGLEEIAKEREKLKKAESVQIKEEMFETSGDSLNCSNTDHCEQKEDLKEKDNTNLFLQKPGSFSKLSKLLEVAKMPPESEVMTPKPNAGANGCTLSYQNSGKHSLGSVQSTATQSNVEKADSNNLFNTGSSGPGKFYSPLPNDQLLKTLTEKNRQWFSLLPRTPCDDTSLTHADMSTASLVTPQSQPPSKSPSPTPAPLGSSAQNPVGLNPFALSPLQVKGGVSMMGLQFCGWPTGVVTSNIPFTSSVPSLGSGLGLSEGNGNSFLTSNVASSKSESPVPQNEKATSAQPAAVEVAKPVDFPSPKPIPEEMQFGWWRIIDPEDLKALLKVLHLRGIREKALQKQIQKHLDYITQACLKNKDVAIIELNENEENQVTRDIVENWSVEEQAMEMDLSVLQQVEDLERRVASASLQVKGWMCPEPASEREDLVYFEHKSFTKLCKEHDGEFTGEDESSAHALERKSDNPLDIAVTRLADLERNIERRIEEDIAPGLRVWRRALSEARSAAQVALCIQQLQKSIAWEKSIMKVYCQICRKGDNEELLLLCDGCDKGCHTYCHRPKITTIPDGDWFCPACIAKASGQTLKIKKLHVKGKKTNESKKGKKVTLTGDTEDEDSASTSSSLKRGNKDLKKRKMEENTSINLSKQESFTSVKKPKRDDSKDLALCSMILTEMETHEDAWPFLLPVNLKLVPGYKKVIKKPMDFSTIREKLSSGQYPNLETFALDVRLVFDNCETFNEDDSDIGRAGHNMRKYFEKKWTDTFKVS

Compound | Potency | activity change, negative = inhibition
CC(=O)Nc1cc(NC(C)=O)cc(C(=O)OCC(=O)Nc2ccc(S(=O)(=O)NC3=NCCCCC3)cc2)c1 | inconclusive: 50.1 µM [inhibitor, partial curve] | –
COc1cccc(NC(=O)C(=O)N/N=C/c2cc(C)n(-c3ccc(Cl)c(Cl)c3)c2C)c1 | – | inactive: -2.17%
O=C(/C=C\c1ccc(-c2cccc([N+](=O)[O-])c2)o1)N1CCOCC1 | inconclusive: 63.1 µM [inhibitor, partial curve, poor fit] | –
CCOc1ccc(NS(=O)(=O)c2ccc3[nH]c4c(c3c2)CCCC4)cc1 | inconclusive: 50.1 µM [inhibitor, partial curve] | –
Cc1cc(C(=O)COC(=O)c2ccc[nH]c2=O)c(C)n1-c1ccc(F)cc1 | inconclusive: 100 µM [inhibitor, single point] | –
Cc1nn(-c2ccccc2)c(C)c1/C=N/n1c(-c2ccc(Cl)cc2)n[nH]c1=S | – | inactive: -26.8%
COc1cc2ccccc2cc1C(=O)NC(=S)Nc1cccc(C(=O)O)c1 | active: 79.4 µM | –
Cc1ccc(Cl)c2sc(NC(=O)CS(=O)(=O)c3ccc(Cl)cc3)nc12 | – | inactive: -11.5%
COc1ccc(N2C(=O)C3C4C=CC(CC4)C3C2=O)c([N+](=O)[O-])c1 (configuration not stated) | inconclusive: 89.1 µM [inhibitor, single point] | –
OC(c1ccccn1)C1CCN(Cc2nc(C(c3ccccc3)c3ccccc3)no2)CC1 (configuration not stated) | inconclusive: 22.4 µM [inhibitor, full curve] | –
CN(C)c1ccc(CNC(=O)c2cc3cc(S(=O)(=O)N4CCCCC4)ccc3n2C)cc1 | inconclusive: 8.91 µM [inhibitor, full curve] | –
CCOC(=O)CNC(=O)c1cccnc1 | inconclusive: 89.1 µM [inhibitor, single point] | –
Cc1ccc(-c2nnc(SC(C)C(=O)NCC3CCCO3)nc2-c2ccc(C)cc2)cc1 (configuration not stated) | inconclusive: 79.4 µM [inhibitor, single point] | –
CCn1ccc2cc(S(=O)(=O)N3CCC(C(=O)NCc4cccc(C)c4)CC3)ccc21 | – | inactive: -6.5%
OCC1(Cc2ccccc2)CCCN(Cc2ccc(-c3ccco3)cc2)C1 (configuration not stated) | active: 44.7 µM | –
Cc1cccc(C2c3[nH]c4ccccc4c3CCN2Cc2cccn2-c2ncccn2)c1 (configuration not stated) | active: 31.6 µM | –
COCCN=c1scc(-c2ccc3c(c2)NC(=O)CO3)n1/N=C(\C)c1ccc(O)cc1 | active: 28.2 µM | –
COc1ccc(Cn2nnnc2C(C(C)C)N2CCc3ccccc32)cc1 (configuration not stated) | inconclusive: 35.5 µM [inhibitor, partial curve] | –
COc1ccc(S(=O)(=O)N2CCN(c3ccccc3OC)CC2)cc1-c1noc(C)n1 | inconclusive: 100 µM [inhibitor, single point] | –
Cc1ccc(Cn2c(-c3ccccc3)nc3ccccc32)cc1 | – | inactive: 28.3%
Cc1c(C(=O)N2CC3(CC(c4cccc(NC(=O)CC(c5ccccc5)c5ccccc5)c4)=NO3)C[C@@H]2C(N)=O)cc([N+](=O)[O-])cc1[N+](=O)[O-] (some centres not stated) | inconclusive: 89.1 µM [inhibitor, single point] | –
COc1ccc(-c2[nH]c(-c3cc(OC)c4c(c3)OCO4)nc2-c2ccccc2)cc1 | inconclusive: 35.5 µM [inhibitor, full curve, poor fit] | –
Cc1oc(C)c2c(=O)cc(-c3ccc4c(c3)OCO4)cc(OC(=O)c3ccccc3Br)c12 | inconclusive: 79.4 µM [inhibitor, partial curve] | –
Cc1ccc(COc2ccc(CNCCCN3CCCCCC3=O)cc2)cc1 | active: 35.5 µM | –

Compound | Potency | activity change, negative = inhibition
CCOc1cccc(C2C(C(=O)c3ccc(C)o3)=C(O)C(=O)N2CCCn2ccnc2)c1 (configuration not stated) | inconclusive: 89.1 µM [inhibitor, single point] | –
Cc1ccn(CC(=O)N/N=C/c2cc([N+](=O)[O-])ccc2O)n1 | active: 35.5 µM | –
CCN(CC)C1=CC2=CC(=C(C#N)C#N)CCC2CC1 (configuration not stated) | – | inactive: -18%
Nc1nc(NCCCN2CCOCC2)nc(Nc2cccc(Cl)c2)c1[N+](=O)[O-] | inconclusive: 79.4 µM [inhibitor, single point] | –
COc1ccc(N2CCN(C(=O)c3ccc4c(c3)NC(=O)C(CSCc3ccc(C)cc3)N4)CC2)cc1 (configuration not stated) | inconclusive: 14.1 µM [inhibitor, partial curve] | –
Cc1c(C(=O)NCC2COc3ccccc3O2)oc2ccc(S(=O)(=O)N3CC(C)CC(C)C3)cc12 (configuration not stated) | – | inactive: 12.1%
O=S1(=O)C=CC(Sc2nc3ccccc3[nH]2)C1 (configuration not stated) | inconclusive: 89.1 µM [inhibitor, single point] | –
O=C(CNS(=O)(=O)c1ccc(Cl)cc1)NC1CCCCC1 | – | inactive: -4.92%
COc1ccc(Nc2cc(C(=O)NC3CCCC3)c3ccccc3n2)c(OC)c1 | – | inactive: -19.9% [at 57.1 µM]
O=C(N/N=C/c1cc2c(cc1Br)OCO2)c1cc2ccccc2o1 | – | inactive: -25.2%
Cc1ccc(C(C)C)c(OCC(=O)Nc2ccc(S(=O)(=O)Nc3onc(C)c3C)cc2)c1 | active: 56.2 µM | –
CCOc1ccc(C(Nc2ccc(C)cc2)P2(=O)OCC(C)(C)CO2)cc1 (configuration not stated) | inconclusive: 79.4 µM [inhibitor, single point] | –
COc1cccc(N2CCN(c3nc(C)c(C)c(=O)[nH]3)CC2)c1 | inconclusive: 89.1 µM [inhibitor, single point] | –
CCN(CCCCN1C(=O)c2ccccc2C1=O)c1ccc2c(c1)C(=O)N(C)C2=O | inconclusive: 79.4 µM [inhibitor, single point] | –
CCOC(=O)c1cnc(-n2nc(C)cc2C)nc1NNc1nc(-c2ccccc2)cc(-c2ccccc2)n1 | inconclusive: 5.62 µM [inhibitor, full curve] | –
COc1ccccc1NCC(=O)NNCC(=O)Nc1ccc(F)c(Cl)c1 | inconclusive: 44.7 µM [inhibitor, partial curve] | –
O=C(NCc1ccccc1)c1ccc(NC(=O)c2nsc3ccccc23)cc1 | – | inactive: 3.83%
COc1ccccc1CNC(=O)c1ccc(CS(=O)(=O)c2ccccc2C)o1 | inconclusive: 79.4 µM [inhibitor, single point] | –
COC1CCCCC1NS(=O)(=O)c1ccccc1 (configuration not stated) | – | inactive: -4%
COc1ccc(N2C(S)=C(C#N)C(=O)NC2c2ccco2)cc1 (configuration not stated) | – | inactive: -29.7%
Cc1cccc(N2CCN(C(=O)CSCc3ccc(F)cc3)CC2)c1C | – | inactive: 48.6%
CCOC(=O)NNc1ccc2nonc2c1[N+](=O)[O-] | active: 39.8 µM | –
Cc1nn(C)c(C(=O)Nc2ccn(C34CC5CC(CC(C5)C3)C4)n2)c1[N+](=O)[O-] | inconclusive: 89.1 µM [inhibitor, single point] | –
COc1cc2c(cc1O)[C@H](Cc1ccc(Oc3cc(C[C@@H]4NCCc5cc(OC)c(O)cc54)ccc3O)cc1)NCC2 | active: 39.8 µM | –

Compound | Potency | activity change, negative = inhibition
Cc1[nH]c2ccccc2c1/C=N/Nc1cccc(C(=O)O)c1 | inconclusive: 50.1 µM [inhibitor, partial curve] | –
O=C1CCc2nc3ccccc3c(=O)n2N1 | active: 56.2 µM | –
CC1CCN(C2=C(NS(=O)(=O)c3ccc(Br)cc3)C(=O)c3ccccc3C2=O)CC1 | active: 4.47 µM | –
COc1ccc(C=Nc2ccc3[nH]ncc3c2)c(O)c1 | inconclusive: 50.1 µM [inhibitor, partial curve, poor fit] | –
Cc1nnc(C)c2c(C)n(-c3ccc4ncccc4c3)c(C)c12 | inconclusive: 79.4 µM [inhibitor, single point] | –
CCOC(=O)c1c(C)sc(-c2c(-c3ccc4c(c3)OCCO4)[nH]c3c2c(=O)n(C)c(=O)n3C)c1O | inconclusive: 89.1 µM [inhibitor, single point] | –
Cc1nn(-c2ccccc2)c(N)c1N=Nc1ccccc1 | active: 31.6 µM | –
Cn1cccc1CC(=O)N/N=C/C=C/c1ccco1 | active: 56.2 µM | –
S=C(NCc1ccco1)Nc1ccc2c(c1)OCCO2 | inconclusive: 50.1 µM [inhibitor, partial curve] | –
O=C(NC1CCN(C(=O)NCc2ccccc2)CC1)c1cccc(F)c1 | – | inactive: -1.2%
COc1ccc(C2c3[nH]c4ccccc4c3CCN2CCCn2cccn2)c(C)c1C (configuration not stated) | inconclusive: 14.1 µM [inhibitor, full curve] | –
CC(NCC(=O)Nc1cc(S(=O)(=O)N2CCOCC2)ccc1N1CCOCC1)c1ccco1 (configuration not stated) | inconclusive: 89.1 µM [inhibitor, single point] | –
Cc1ccc(SCCNC(=S)Nc2cc(C)ccc2C)cc1 | inconclusive: 50.1 µM [inhibitor, partial curve] | –
COc1ccc(CNC(=O)c2ccc3nc(CCc4ccccc4)oc3c2)cc1OC | – | inactive: -18.7%
CCn1c(C(=O)N2CCC(C(=O)N3CCN(c4cc(C)ccc4C)CC3)CC2)cc2sccc21 | active: 22.4 µM | –
COC(=O)c1ccc(OCC(O)CNCC(c2ccc(OC)cc2)N(C)C)c(OC)c1 (configuration not stated) | active: 50.1 µM | –
C=CCn1c(COc2ccc(Cl)cc2)nnc1SCC(=O)NCC(=O)OCC | – | inactive: -26.1%
Cc1ccc2nc3c(c(N)c2c1)CCN3c1ccccc1 | active: 56.2 µM | –
CC1=NN(c2nc(-c3ccc(C)cc3)cs2)C(=O)C1N=Nc1ccc2ccccc2c1 (configuration not stated) | inconclusive: 3.98 µM [inhibitor, full curve] | –
COCCCNCCCCOc1ccc(Br)cc1Cl | inconclusive: 100 µM [inhibitor, single point] | –
CC(C)Nc1nc(NC(C)C)nc(N(C)N)n1 | active: 3.16 µM | –
Cc1ccc(C(=O)NC(=S)Nc2ccccc2C)cc1 | active: 89.1 µM | –
CS/C(N)=N/C(=S)Nc1cccc(Cl)c1 | inconclusive: 70.8 µM [inhibitor, partial curve] | –
Cc1ccn2c(C(=O)c3ccc(Cl)cc3)cnc2c1 | – | inactive: 0.705%
